# Test results: PMC4336329 (PLoS ONE, 2015)
# Among all 310,000 compounds or so, about 14,000 (4.5%) showed an effect of 50% or more. Effects have a minus sign here. The list shows a part of the results.
# Target: human ether-à-go-go-related gene (hERG) potassium channel (human, UniProt Q12809)
# Experiment: primary screen, population patch clamp on CHO cells stably expressing hERG
# 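Note: peak tail current of the secondary pulse compared with the same well before compound.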
# human ether-à-go-go-related gene (hERG) potassium channel, sequence (Q12809 whole entry, looked up): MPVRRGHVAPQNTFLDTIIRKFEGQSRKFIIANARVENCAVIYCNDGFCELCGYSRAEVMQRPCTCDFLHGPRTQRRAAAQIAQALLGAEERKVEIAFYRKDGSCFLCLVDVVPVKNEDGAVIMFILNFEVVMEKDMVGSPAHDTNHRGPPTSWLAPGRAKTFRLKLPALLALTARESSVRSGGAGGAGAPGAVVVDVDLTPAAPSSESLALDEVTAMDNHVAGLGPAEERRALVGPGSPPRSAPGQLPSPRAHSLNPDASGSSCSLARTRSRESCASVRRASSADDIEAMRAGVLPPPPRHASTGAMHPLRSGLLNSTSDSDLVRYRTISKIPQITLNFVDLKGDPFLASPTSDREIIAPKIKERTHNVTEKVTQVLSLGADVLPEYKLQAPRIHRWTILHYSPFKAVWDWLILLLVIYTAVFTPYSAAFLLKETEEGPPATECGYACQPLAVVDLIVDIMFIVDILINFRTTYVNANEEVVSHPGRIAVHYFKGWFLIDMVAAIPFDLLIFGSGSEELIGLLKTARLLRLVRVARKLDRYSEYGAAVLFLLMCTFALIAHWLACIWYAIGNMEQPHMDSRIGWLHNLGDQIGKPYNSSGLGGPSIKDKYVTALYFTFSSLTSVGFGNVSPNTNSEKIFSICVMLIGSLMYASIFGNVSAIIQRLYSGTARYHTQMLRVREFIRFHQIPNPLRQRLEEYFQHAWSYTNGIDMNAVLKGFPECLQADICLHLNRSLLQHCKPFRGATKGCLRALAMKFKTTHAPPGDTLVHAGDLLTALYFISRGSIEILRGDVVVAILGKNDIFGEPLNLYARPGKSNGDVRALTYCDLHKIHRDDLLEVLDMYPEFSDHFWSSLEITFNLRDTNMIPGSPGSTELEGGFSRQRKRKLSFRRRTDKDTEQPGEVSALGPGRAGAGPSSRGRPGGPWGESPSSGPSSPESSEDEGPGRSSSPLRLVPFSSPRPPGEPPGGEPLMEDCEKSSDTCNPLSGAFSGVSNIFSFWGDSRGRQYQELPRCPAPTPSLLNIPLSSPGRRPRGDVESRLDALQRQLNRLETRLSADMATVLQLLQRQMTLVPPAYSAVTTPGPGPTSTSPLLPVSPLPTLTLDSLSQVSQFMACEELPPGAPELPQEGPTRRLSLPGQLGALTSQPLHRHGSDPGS
row,Structure (SMILES),"hERG current change (%, negative = inhibition) at 10uM [%]"
1,COc1ccc(NC(=S)NC2CCCCCC2)c(OC)c1,4.68
2,Cc1occc1C(=O)NNC(=O)COc1ccc(Br)cc1Br,2.94
3,CCC(CC)C(=O)Oc1c(Sc2ccccc2[N+](=O)[O-])c(C)nn1C(C)(C)C,13
4,O=[N+]([O-])c1ccc(/C=C/c2ccncc2)cc1,-25.7
5,C=CCC1(CC=C)CCCN1C(=O)c1cc(COc2ccccc2SC)on1,-1.98
6,CCOC(=O)/C(C#N)=C\c1c(C)cc(C)c(COC(C)=O)c1C,9.76
7,CC(CC(=O)O)CC(=O)Nc1ccccc1C(=O)O (stereo not drawn),-28.3
8,ClC(Cl)(Cl)c1ccccc1,10.1
9,COc1ccccc1N(Cc1ccccc1)S(=O)(=O)c1cccc(C(=O)NC2CC(C)(C)NC(C)(C)C2)c1,-73.4
10,CC1=CC(=O)C(C(C)C)=C/C1=N/OS(=O)(=O)c1ccccc1,6.9
11,CSc1nc2n(n1)C(c1cc(Br)ccc1F)C(C(=O)N(C)C)=C(C)N2 (stereo not drawn),-6.95
12,CCc1csc(CCNC(=O)C2CCC(=O)N(Cc3ccccc3F)C2)n1 (stereo not drawn),-3.32
13,CCCCOC(=O)C1=C(C)Nc2ncnn2C1c1cccc(OC)c1 (stereo not drawn),-6.92
14,COC(=O)C(CCSC)NC(=O)C(NC(=O)C1CCC(C)CC1)C(C)C (stereo not drawn),3.33
15,COCC(=O)Nc1cc(C(=O)Nc2ccccc2)ccc1Cl,-5.75
16,O=S(=O)(c1ccc2c(c1)CCCN2)N1CCCCC1,-11.9
17,CC(Sc1nncs1)C(=O)Nc1ccc(Cl)cn1 (stereo not drawn),0.601
18,Cc1nnc(SCc2nnc(-c3cccs3)o2)s1,1.39
19,Cc1ccc2c(CSc3nnc4ccccn34)cc(=O)oc2c1C,-16

row,Structure (SMILES),"hERG current change (%, negative = inhibition) at 10uM [%]"
1,COc1ccc(C2Nc3ccccc3C(=O)N2c2ccc(C)cc2)cc1Cn1nc(C)c([N+](=O)[O-])c1C (stereo not drawn),2.25
2,COc1c(Cl)cc(-c2noc(C)c2C(=O)NCCc2ccc(C)cc2)cc1Cl,-0.305
3,CC1CN(S(=O)(=O)c2cccc(C(=O)OCC(=O)Nc3ccc4c(c3)OCO4)c2)CC(C)O1 (stereo not drawn),-8.93
4,CC(OC(=O)Cc1n[nH]c(=O)c2ccccc12)C(=O)Nc1ccc(F)cc1Cl (stereo not drawn),2.32
5,CN(Cc1ccc(C(C)(C)C)cc1)C(=O)c1ccc2c(=O)n3c(nc2c1)CCC3,-47.8
6,c1ccc2c3n(nc2c1)CCCCO3,8.27
7,CCCc1nc(SCc2ccccc2Cl)n[nH]1,10.7
8,COC(=O)Cc1c(C)c2ccc(OC3CCCCC3=O)cc2oc1=O (stereo not drawn),6.98
9,COC(C(=O)Nc1ccnn1C1CCN(Cc2cnn(C)c2)CC1)c1ccccc1 (stereo not drawn),6
10,NC(=O)[C@H]1CC2(CC(c3cccc(NC(=O)CC(c4ccccc4)c4ccccc4)c3)=NO2)CN1C(=O)c1ccccc1C(=O)c1ccccc1 (stereo partly drawn),4.03
11,Cc1cc(C)nc(SC(C(=O)O)c2ccccc2)n1 (stereo not drawn),17.9
12,CCOC(=O)Cn1cc(C#N)c2ccccc21,15.1
13,COc1ccc(-c2nnc(C)c3nocc23)cc1,9.28
14,Cc1cccn2c(=O)c3cc(C(=O)NC4CCCC4)c(=N)n(CC4CCCO4)c3nc12 (stereo not drawn),-74.4
15,Cc1cccnc1NC(=O)c1ccc2c(c1)OCO2,1.4
16,Cn1c(=O)[nH]c(Nc2ccccc2)c([N+](=O)[O-])c1=O,15.4
17,COC(=O)c1ccc(C23CC4(C2)[C@H](CN(Cc2ccc(-c5ccccc5)cc2)[C@@H]4c2ccccc2)C3c2ccc(C(F)(F)F)cc2)cc1 (stereo partly drawn),1.21
18,COc1ccc(-c2csc(C)n2)cc1,-0.124
19,Cc1ccccc1N1CCN(C2CCCN(C(=O)c3ocnc3C)C2)CC1 (stereo not drawn),-16.9

row,Structure (SMILES),"hERG current change (%, negative = inhibition) at 10uM [%]"
1,COc1cccc2oc3ccc(C#Cc4ccccn4)cc3c(=O)c12,13.6
2,Cc1ccc(C)c(C(=O)NC(C)c2ccc(-n3ccnc3)cc2)c1 (stereo not drawn),-62.4
3,O=C(NC(NC1CCS(=O)(=O)C1)C(Cl)(Cl)Cl)c1cccc(Cl)c1 (stereo not drawn),-7.37
4,CCc1cccc(CC)c1NC(=O)CSc1nc2ccc(N3C(=O)C4C(C3=O)[C@H]3C=C[C@@H]4C3)cc2s1 (stereo partly drawn),3.84
5,O=C(O)c1cccc(OS(=O)(=O)c2cc(Br)ccc2Br)c1,-9.65
6,COc1ccc(C(=O)COC(=O)c2cc(S(=O)(=O)N3CCCCC3)ccc2N2CCOCC2)c(OC)c1,-12.7
7,COc1ccc(Nc2oc(COc3ccc(Cl)cc3)nc2C#N)cc1,11.1
8,CN1CCN(NC(=O)c2cccc3ccccc23)CC1,4.95
9,COc1ccc(C2CC(c3cccs3)=NN2S(C)(=O)=O)cc1 (stereo not drawn),-2.74
10,NNC(=O)CCc1nc2ccc(O)cc2[nH]1,18.1
11,O=C(COC(=O)[C@@H]1CCCN1C(=O)c1cccs1)NCCc1ccccc1,-7.49
12,N/C(CSc1ccc(Cl)cc1)=N\S(=O)(=O)c1ccc(Cl)cc1,5.61
13,Cc1ccc(S(=O)(=O)NCC(=O)OCC(=O)c2ccc(Br)s2)cc1,-52.7
14,COCc1cc(C)n(CC(=O)NCc2ccccc2)c(=O)c1C#N,18
15,COc1ccc(C(=O)N2CCSC2=S)cc1OC,-9.03
16,CCOC(=O)CSc1nnnn1-c1cc(OC)c(Cl)cc1OC,-0.709
17,CN(C)c1oc(/C=C/c2ccccc2)nc1C#N,8.93
18,O=C(CSc1nccn1-c1cccc(Cl)c1)NO,0.366
19,C=CCc1c(C)nc(-c2ccccc2)nc1Nc1ccc(O)cc1,-18.7
